Test results as given in ChEMBL document CHEMBL4888484, “Replenishing the malaria drug discovery pipeline: Screening and hit evaluation of the MMV Hit Generation Library 1 (HGL1) against asexual blood stage Plasmodium falciparum ,using a nano luciferase reporter read-out” (2022).
Screen size: about 150,000 compounds; about 540 (0.36%) showed an effect of 50% or more. Some of the results follow.

System: Plasmodium falciparum
Assay: Primary screen in NF54 nanoGlo assay, in single point, at 2uM, 72h; a lower Z score goes with more inhibition
Format: functional, Erythrocyte
Settings: timepoint 72 hour

Row | Structure (SMILES) | % Inhibition [%] | Z score
1 | Cc1noc(C2CN(C(=O)c3c[nH]c4ccccc34)C2)n1 | 2 | -0.38
2 | Cc1ccc(S(=O)(=O)N2CCC(C(=O)OCCOc3cccc(C)c3)CC2)cc1 | 3 | -0.37
3 | O=C(N[C@@H](CCc1ccccc1)C(F)(F)F)c1cc2c(s1)CCOC2 | -7 | 1.31
4 | CCNC(=O)N1CCC(Cc2ccc(C(=O)NCc3ccncc3)cc2)CC1 | -4 | 0.56
5 | O=C(C[C@@]1(O)C(=O)N(Cc2cccc(C(F)(F)F)c2)c2ccccc21)c1ccc2c(c1)OCO2 | -4 | 0.57
6 | Cc1cc(C)nc(O[C@H]2CC[C@H](NC(=O)C3CCOCC3)CC2)n1 | -6 | 0.65
7 | Cc1ccc(C(=O)N2CCCN(c3nc4ccccc4c4nnc(-c5ccccc5Cl)n34)CC2)cc1 | 10 | -0.89
8 | C[C@](O)(CNC(=O)c1nnc(-c2ccco2)o1)C1CC1 | -4 | 0.42
9 | COCCN(C)c1cc(C(N)=O)nc(N(C)CCOC)n1 | 7 | -1.24
10 | CC(C)c1nncn1CCNC(=O)c1ccoc1C(F)(F)F | -5 | 0.61
11 | C[C@H](OC(=O)CCc1nc2c([nH]1)c(=O)[nH]c(=O)n2C)c1cnc2ccccc2c1 | -2 | 0.33
12 | O=C(C1COc2ccccc2O1)N1CCCC1c1ccncc1 (stereo not drawn) | -3 | 0.48
13 | O=C(NC[C@H]1CCCCO1)c1cnc2ccccn2c1=O | -4 | 0.88
14 | COCC1(CNC(=O)CN2CCOCC2)CCC1 | -11 | 2.09
15 | CN(C)C[C@@H](CO)NC(=O)c1cc2c(C(F)F)nn(C)c2s1 | 2 | -0.46
16 | Cc1cc(O[C@H]2CCN(C)C2=O)ccc1NC(=O)c1cscn1 | -4 | 0.37
17 | CN(CC1(CO)CC1)C(=O)Nc1cccc2[nH]ccc12 | 3 | -0.57
18 | O=C(CC1CCCC1)NCC1CCN(c2cccnc2)CC1 | 18 | -2.28
19 | Cc1ncc2c(c1-c1noc(-c3cc(-c4ccccc4)on3)n1)CCNC2 | -14 | 1.65
20 | CCOC(=O)COCCN1CCC[C@H]1c1ncccn1 | -6 | 1.08
21 | O=C1CN(CCn2cncn2)CN1CC1CC1 | -13 | 2.39

Row | Structure (SMILES) | % Inhibition [%] | Z score
22 | COc1ccc(CN[C@H]2[C@H](O)[C@@H](n3cncn3)[C@@H]3OC[C@H]2O3)cc1 | 33 | -3.68
23 | COc1nn(C)cc1C(=O)NCc1nnc2cc(-c3nc(C)no3)ccn12 | -19 | 2.49
24 | COCCc1noc(CNC(=O)[C@H]2CCCO2)n1 | -12 | 1.17
25 | CN(C[C@H]1CCOC1)C(=O)COCc1nc2cc(F)ccc2[nH]1 | -10 | 1.88
26 | CCn1nc(C)c([C@H](C)NS(=O)(=O)N2CCC(OC)CC2)c1C | -3 | 0.38
27 | CC(C)c1csc(CN2CCC(CCC(=O)N(C)Cc3ccccc3)CC2)n1 | -4 | 0.51
28 | COC(=O)c1nc(NC(=O)C[C@@H]2N=C(O)N(Cc3cccc(F)c3)C2=O)sc1C(C)C | 5 | -0.59
29 | CCC(Oc1ccc2c(c1)C(c1ccc(F)cc1)N(C(=O)C(C)(C)C)CC2)C(=O)N1CCCC1 (stereo not drawn) | 6 | -0.69
30 | O=C(Nc1ccc2c(c1)OCO2)NC1CCCC(OC(=O)Nc2ccc(F)cc2)C1 (stereo not drawn) | 0 | -0.03
31 | COc1ccc(-n2nc(C)c(CCC(=O)Nc3ccc(F)cc3)c2Oc2ccccc2)cc1 | 4 | -0.54
32 | Fc1ccc(CCNC2=NCCCN2)cc1 | 5 | -0.9
33 | O=C(NCCC1(CO)CCC1)c1ccc(Cl)c2occc12 | -3 | 0.43
34 | Cc1sc2ncnc(Nc3ccc4c(c3)OCO4)c2c1C | -3 | 0.37
35 | CCc1cccc2c1N(S(=O)(=O)c1ccc(S(=O)(=O)N3CCCCC3)cc1)CC2 | -14 | 1.24
36 | Cc1nn(C)c(C)c1C(=O)C(=O)N(C)C(C1CC1)C1CC1 | -15 | 1.99
37 | Cc1ccc(CN(CC(C)C)C[C@H](O)COCc2ccccc2)s1 | -8 | 1.29
38 | Cn1cc(C(C(=O)O[C@@H]2C[C@@H]3CC[C@@]2(C)C3(C)C)c2cn(C)c3ccccc23)c2ccccc21 | 32 | -0.29
39 | Cc1cc(CC(=O)NCc2cc(COc3ccccc3)cs2)on1 | 2 | -0.28
40 | Cc1noc(C)c1COC(=O)c1nccnc1N | 0 | -0.04
41 | C[C@H](NCc1nnc(C2CC2)o1)c1ccc(-n2ccnn2)cc1 | -12 | 1.5
42 | CC(CC(O)c1ccco1)NC(=O)c1cc(Br)c[nH]1 (stereo not drawn) | -13 | 1.71

Row | Structure (SMILES) | % Inhibition [%] | Z score
43 | O=C1CCCN1CCC(=O)N1CCO[C@@H](CCCc2ccccc2)C1 | -12 | 1.32
44 | Cc1cccc(N2CCN(C(=O)c3nnn(-c4ccc(Cl)cc4)c3C)CC2)c1C | 6 | -0.9
45 | CCCCS(=O)(=O)N1CCC[C@@H]1CCc1noc(-c2ccccn2)n1 | -10 | 1.56
46 | O=C(NCc1cc(-c2ccncc2)n(C2CCCC2)n1)Nc1cccs1 | -11 | 1.42
47 | CC(CCc1ccccc1)N1CCCC1Cn1cncn1 (stereo not drawn) | -5 | 0.71
48 | CC(=O)N[C@H]1CN(C(=O)CCn2ccccc2=O)C[C@@H]1c1ccc(C)cc1 | -3 | 0.46
49 | CN1C(=O)N(c2ccnn2C2CCC2)C(=O)C1(C)C | -13 | 1.28
50 | COc1ccc(CN2CCNC(=O)[C@@H]2CC(=O)NCc2ccon2)cc1OC | -19 | 2.44
51 | Cc1ccccc1-c1nc(OC(C)C)nn1-c1ccc(NC(=O)C2CCC2)cc1 | -4 | 0.63
52 | CCOc1ccc(-c2noc(CN3N=NC4C(=O)N(c5ccc(F)c(F)c5)C(=O)C43)n2)cc1OC (stereo not drawn) | 15 | -1.68
53 | CN[C@@H](C)C(=O)Nc1nn(Cc2ccccc2)c2cccc(Oc3cccnc3)c12 | 9 | -1.36
54 | CCc1ccc(CN2CCc3c(C(=O)N(C)CC(N)=O)csc3C2)nc1 | -10 | 1.94
55 | O=C1CCC(=O)N1CCCc1ccccc1Br | -14 | 1.41
56 | COc1csc(C(=O)Nc2ccnn2C2CCN(C)CC2)c1 | 1 | -0.2
57 | O=C1[C@H]2Cc3ccccc3CN2C(=O)CN1C1CCCCC1 | -6 | 1.08
58 | O=C(NCc1ccoc1)c1ccc(S(=O)(=O)NCC(F)F)cc1 | -9 | 0.86
59 | O=C(Nc1cc(Cl)ccc1Oc1ccc2ccccc2c1Cl)c1cc(Br)cc(Br)c1O | -1 | 0.14
60 | CC[C@@H](C(=O)N1CCc2[nH]nc(C3CC3)c2C1)n1cccn1 | 6 | -1.28
61 | Cc1c(Br)cccc1CCNC(=O)Cc1ccon1 | -6 | 0.93
62 | CCC1(CO)CCN(C(=O)NCC2CCC(C)(C)CC2)CC1 | -5 | 0.9
63 | Fc1ccc(-n2c(-c3ccncc3)nnc2-c2cccs2)cc1 | -28 | 3.31

Row | Structure (SMILES) | % Inhibition [%] | Z score
64 | COc1ccc(S(=O)(=O)C2CCN(C(=O)Cn3cnc4ccccc43)CC2)cc1 | -8 | 1.01
65 | Cc1ccc(CN2CCCN(C(=O)Cn3nc(C)cc3C)CC2)cc1 | -9 | 1.17
66 | COc1ccc(N2CCN(C(=O)Cc3c(C)nn(-c4ccc(C)c(C)c4)c3C)CC2)cc1 | 1 | -0.09
67 | Cc1cc(NC(=O)c2cnccn2)sn1 | -2 | 0.43
68 | Cc1cc(S(=O)(=O)N(C)Cc2nccs2)sc1Cl | -2 | 0.25
69 | COc1ccccc1OC1(C(=O)O)CCN(Cc2ccc(C)o2)CC1 | -4 | 0.38
70 | COc1cccc(C(=O)N(CC(=O)Nc2nc(-c3ccccc3)cn2-c2ccc(C(F)(F)F)cc2)C2CC2)c1 | -12 | 1.82
71 | O=C(Cc1ccc(C(=O)Nc2nc(-c3ccccc3)cs2)cc1)c1ccccc1 | 30 | -1.09
72 | Cn1cc(C(=O)N2C[C@@H]3CC[C@H]2CN(C(=O)c2ccccn2)C3)cn1 | -7 | 1.04
73 | Clc1cccc2c1OCCN2Cc1cnc(C2CC2)s1 | -4 | 0.32
74 | Cc1ccc(NC(=O)C(=O)N2CCO[C@H](C3CCCCC3)C2)nc1 | -12 | 1.63
75 | C=CCCC(=O)N1CCC([C@H](C)NC(=O)OC(C)(C)C)CC1 | -3 | 0.35
76 | O=C(CNC(=O)OCc1ccccc1)NCc1ccc(C2CC2)nc1 | 13 | -1.6
77 | NS(=O)(=O)c1cccnc1NCC1CC1 | 14 | -1.64
78 | Cc1ccc(F)cc1-c1nnc(NS(C)(=O)=O)o1 | -35 | 4.11
79 | O=C(Nc1ccc(F)cc1F)c1ccc(C(=O)Nc2ccc(F)cc2F)s1 | -7 | 0.8
80 | C=CCN(C)c1nc(-c2cccnc2)nc2c1CCNC2 | -12 | 2.33
81 | CCc1nc2cc(N3CCC[C@H](C(=O)N(C)Cc4ccco4)C3)cnc2nc1CC | -7 | 1.29
82 | CCn1cc(C(=O)NCc2ccccc2CN(C)C(=O)OC(C)(C)C)c(C2CC2)n1 | 9 | -1.47
83 | O=C(Cn1c(-c2cccs2)cc2cc(F)ccc21)NCc1ccccc1F | 7 | -1.19
84 | COCC(=O)[C@H](C#N)c1ccc(Cl)cc1 | -11 | 1.66
